Measured values reported in the supplement of paper PMC8512760.
This is one part of the list. Repeats are few or missing, and single values can be far off.

Experiments:
Assay in all cases: cell viability relative to vehicle (% of vehicle); basal-like triple-negative breast cancer lines; higher = less cytotoxic
Settings in all cases: 10 µM; 72 h
HCC-1143 = system: HCC-1143
HCC-1187 = system: HCC-1187
MDA-468 = system: MDA-468
SUM-149 = system: SUM-149
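Note: stably firefly luciferase-GFP labeled cells in 96-well plates, viability read as luciferase photon flux after d-luciferin addition, treated wells normalized to vehicle wells, single-dose high-throughput screen.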

SMILES	cell viability (HCC-1143)	cell viability (HCC-1187)	cell viability (MDA-468)	cell viability (SUM-149)
C=CCC1(O)CCC2C3CCC4=CC(=O)CCC4=C3C=CC21C (stereo unspecified) [Altrenogest]	76.3	118	102	111
CCNCC.O=S(=O)(O)c1cc(O)ccc1O [Ethamsylate]	69.8	91.5	107	102
O=C(OC1CC2CCC(C1)[N+]21CCCC1)C(O)(c1ccccc1)c1ccccc1.[Cl-] (stereo unspecified) [Trospium chloride]	115	104	101	120
Cl.O=C1CCC2(O)C3Cc4ccc(O)c5c4C2(CCN3CC2CC2)C1O5 (stereo unspecified) [Naltrexone HCl]	83.8	88.5	97.3	134
Cc1ccc(-n2nccn2)c(C(=O)N2CCN(c3nc4cc(Cl)ccc4o3)CCC2C)c1 (stereo unspecified)	118	70.9	96.4	104
C[C@]12CC[C@H]3[C@@H](CC[C@@]45O[C@@H]4C(O)=C(C#N)C[C@]35C)[C@@H]1CC[C@@H]2O [Trilostane]	125	59	111	103
CCC1(c2ccc(N)cc2)CCC(=O)NC1=O (stereo unspecified) [Aminoglutethimide]	78.4	92.9	104	98.5
Oc1cc(Cl)ccc1Oc1ccc(Cl)cc1Cl [Triclosan]	78.1	82.8	111	94.1
CN(C)C1C(=O)C(C(N)=O)=C(O)C2(O)C(=O)C3=C(O)c4c(O)cccc4C(C)(O)C3CC12.Cl (stereo unspecified) [Tetracycline Hydrochloride]	95.9	93.2	80.2	79.6
